Test results from PubChem BioAssay AID2546 (National Center for Advancing Translational Sciences (NCATS), 2010).
Hit rate of the full screen: of about 310,000 compounds, about 11,000 (3.5%) were called active. Inconclusive means that the source gave no clear call. Such entries were picked first, then a sample of the others. Calls follow the shape of the dose curve; as a rule, active = well fitted inhibition curve with a large enough effect; inconclusive = small, poorly fitted or top-dose-only effect, or effect the other way; inactive = flat fitted curve, though single readings scatter. Potencies of inconclusive entries are left out as doubtful fits.

Experiment: VP16 counterscreen qHTS for inhibitors of ROR gamma transcriptional activity;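 also: Gal4-VP16 expression switched on by copper sulfate through the metallothionein promoter; nearly all actives have a fitted effect of over 50% in size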
Details: Drosophila S2 Gal4-VP16 UAS-luciferase, luminescence, 20 h; activity, negative = inhibition: at 53.6 µM (top of the series)
% is scaled to controls: 0 for no effect and ±100 for the full control effect; potency is read from the fitted curve at half-maximal effect; tags tell the direction and shape of the fitted curve.

| SMILES | Potency | activity, negative = inhibition |
| --- | --- | --- |
| CCC(C(=O)OCC(=O)Nc1cc(Cl)ccc1Cl)c1ccccc1 (stereo not drawn) | inconclusive [inhibitor, single point] |  |
| Fc1ccccc1CNc1cc(Cl)cc(Cl)c1 |  | inactive: -19.2% |
| COc1cnc(-c2ccccn2)nc1Sc1c(Cl)cccc1Cl | active: 10 µM |  |
| COc1ccc(NC(=O)CSc2cc(C(=O)c3nccn3C)c3ccccc3n2)cc1 | inconclusive [inhibitor, single point] |  |
| Cc1c(C(=O)Nc2ccccc2)csc1-c1ccccc1 | inconclusive [inhibitor, single point] |  |
| COCCN1C(=O)c2cc(C(=O)Nc3ccc(C)c(F)c3)ccc2C1Nc1ccc(C)c(F)c1 (stereo not drawn) | inconclusive [inhibitor, single point] |  |
| CCCC(=O)NC(=S)N1CCN(c2ccc([N+](=O)[O-])cc2)CC1 | inconclusive [inhibitor, single point] |  |
| CCN(CC)c1ccc(/C=N/NC(=O)CN2CCCc3ccccc32)cc1 | inconclusive [inhibitor, partial curve] |  |
| COc1ccccc1CN(Cc1nc2ccccc2c(=O)[nH]1)C(=O)Nc1cccc(C)c1 |  | inactive: 5.73% |
| Cc1ccc(SCCC(=O)N/N=C/c2cccnc2)cc1 |  | inactive: -3.53% |
| Cc1ccccc1N1CCN(Cc2c(C#N)c3ccccc3n2C)CC1 |  | inactive: 0.446% |
| O=C(CCl)Nc1ccc(Oc2cnc3ccccc3n2)cc1 | inconclusive [inhibitor, single point] |  |
| Cc1c(C(=O)Nc2ccncc2)oc2ccccc12 |  | inactive: -3.37% |
| CC(C)c1ccc(OCC(=O)NNC(=S)NC(=O)C2CC2)cc1 | inconclusive [inhibitor, single point] |  |
| CC1(C)C2CCC1(C)C(NC(=O)/C=C/c1ccccc1)C2 (stereo not drawn) | active: 17.8 µM |  |
| CC(=O)c1c(C)[nH]c(C(=O)COC(=O)CCSc2ccccc2)c1C | inconclusive [inhibitor, single point] |  |
| CCOC(=O)c1nn(-c2ccc3c(c2)CCN3C(C)=O)cc1O | inconclusive [inhibitor, single point] |  |
| COC(=O)c1ccccc1NC(=O)C(=O)NCC1CCCO1 (stereo not drawn) | inconclusive [activator, single point] |  |
| O=C(CCNC(=O)c1ccccc1Cl)Nc1nc(-c2ccc3ccccc3c2)cs1 | inconclusive [inhibitor, partial curve, poor fit] |  |
| CC(Oc1ccc(Cl)cc1Cl)c1nc(-c2ccc(NC(=O)c3ccncc3)cc2)no1 (stereo not drawn) | active: 12.6 µM |  |
| Cc1ccc(/C=C2/SC(=S)N(CCCC(=O)Nc3cc([N+](=O)[O-])ccc3O)C2=O)cc1 | inconclusive [inhibitor, partial curve] |  |
| Cc1ccsc1/C=N/Nc1nc2ccccc2[nH]1 | active: 1.41 µM |  |
| O=[N+]([O-])c1ccc2nc(SCc3cn4cc(Cl)ccc4n3)[nH]c2c1 | inconclusive [inhibitor, single point] |  |
| CCOC(=O)N1CCN(C(=O)C2CCCN(c3nc4ccc(OCC)cc4s3)C2)CC1 (stereo not drawn) | inconclusive [activator, single point] |  |

| SMILES | Potency | activity, negative = inhibition |
| --- | --- | --- |
| COc1ccc2[nH]c(=O)c(NC(N)=S)nc2c1 | inconclusive [inhibitor, single point] |  |
| CCOC(=O)Nc1ccccc1C(=O)N1CCOCC1 |  | inactive: -5.52% |
| Cc1[nH]c2ccccc2c(=O)c1C(=O)/C=C/c1ccccc1 | active: 5.62 µM |  |
| O=C(Nc1nc2c(s1)CCCC2)c1cc(-c2ccccc2)nc2ccccc12 | inconclusive [inhibitor, single point] |  |
| O=C(Nc1ccc(NC(=O)c2ccco2)nc1)c1ccccn1 | active: 1.78 µM |  |
| O=c1[nH]c(=O)n([C@@H]2O[C@H](CO)[C@@H](O)[C@H]2O)cc1Br |  | inactive: -9.38% |
| Cc1cccc(CN2CCCC(C(=O)Nc3ccc(-c4cscn4)cc3)C2)c1 (stereo not drawn) |  | inactive: -14.2% |
| CCOC(=O)c1c(C)[nH]c2cc(Br)c(OC)cc12 | inconclusive [inhibitor, single point] |  |
| Cc1cccc(-n2ncc3c2CCCC3NC(=O)C2(C(N)=O)CC2)c1C (stereo not drawn) | active: 7.94 µM |  |
| CC1CN(C(=O)c2ccc(COc3ccc(C(C)C)cc3)o2)CC(C)O1 (stereo not drawn) | inconclusive [inhibitor, single point] |  |
| CN(C)CC(CCC(CN(C)C)C(O)(c1ccccc1)c1ccccc1)C(O)(c1ccccc1)c1ccccc1 (stereo not drawn) | inconclusive [inhibitor, partial curve] |  |
| Cc1cn(CC2COC(C)(C)O2)c(=O)[nH]c1=O (stereo not drawn) |  | inactive: -12.5% |
| CC(C)CCNC(=S)Nc1ccc([N+](=O)[O-])cc1 | inconclusive [inhibitor, single point] |  |
| CCOC(=O)c1ccc(-c2c(C(=O)OCC)oc3cc(O)c(CC)cc3c2=O)o1 | inconclusive [inhibitor, single point] |  |
| O=C(Nc1ccc(F)c(F)c1)c1ccc(F)c(S(=O)(=O)N2CCOCC2)c1 | inconclusive [inhibitor, single point] |  |
| COc1ccc(-c2nc(NC(=O)CSCCO)sc2C)cc1 | inconclusive [inhibitor, single point] |  |
| CSc1nc(Cl)c(Cc2ccc(OC(C)C)cc2)c(N(C)C)n1 | inconclusive [inhibitor, single point] |  |
| Cc1n[nH]c(=S)n1/N=C/c1ccc(-c2ccccc2[N+](=O)[O-])o1 | inconclusive [inhibitor, single point] |  |
| Cc1ccccc1-n1ncc(C(C)NS(=O)(=O)c2sccc2C)c1C (stereo not drawn) |  | inactive: 1.15% |
| CCOc1ccccc1N1CCN(C/C=C/c2ccc(N(C)C)cc2)CC1 |  | inactive: -1.21% |
| COc1cccc(C2=CC(c3ccc(C)cc3)n3ncnc3N2)c1 (stereo not drawn) |  | inactive: 3.41% |
| CCSc1nnc(NC(=O)c2nc(S(=O)(=O)Cc3ccc(F)cc3)ncc2Cl)s1 | active: 11.2 µM |  |
| O=C1/C(=C/c2ccc(N3CCCC3)cc2)NC(=S)N1C1CC1 | active: 11.2 µM |  |
| CCOC(=O)c1cccc(NC(=S)NC(=O)c2cccnc2)c1 | inconclusive [inhibitor, single point] |  |
